# Among all 310,000 compounds or so, about 2,200 (0.71%) showed an effect of 50% or more. The effect is printed as a negative number. Some of the results follow.
# Target: human ether-à-go-go-related gene (hERG) potassium channel (human, UniProt Q12809)
# Assay: primary screen, population patch clamp on CHO cells stably expressing hERG
# Chain of human ether-à-go-go-related gene (hERG) potassium channel (Q12809 whole entry, looked up): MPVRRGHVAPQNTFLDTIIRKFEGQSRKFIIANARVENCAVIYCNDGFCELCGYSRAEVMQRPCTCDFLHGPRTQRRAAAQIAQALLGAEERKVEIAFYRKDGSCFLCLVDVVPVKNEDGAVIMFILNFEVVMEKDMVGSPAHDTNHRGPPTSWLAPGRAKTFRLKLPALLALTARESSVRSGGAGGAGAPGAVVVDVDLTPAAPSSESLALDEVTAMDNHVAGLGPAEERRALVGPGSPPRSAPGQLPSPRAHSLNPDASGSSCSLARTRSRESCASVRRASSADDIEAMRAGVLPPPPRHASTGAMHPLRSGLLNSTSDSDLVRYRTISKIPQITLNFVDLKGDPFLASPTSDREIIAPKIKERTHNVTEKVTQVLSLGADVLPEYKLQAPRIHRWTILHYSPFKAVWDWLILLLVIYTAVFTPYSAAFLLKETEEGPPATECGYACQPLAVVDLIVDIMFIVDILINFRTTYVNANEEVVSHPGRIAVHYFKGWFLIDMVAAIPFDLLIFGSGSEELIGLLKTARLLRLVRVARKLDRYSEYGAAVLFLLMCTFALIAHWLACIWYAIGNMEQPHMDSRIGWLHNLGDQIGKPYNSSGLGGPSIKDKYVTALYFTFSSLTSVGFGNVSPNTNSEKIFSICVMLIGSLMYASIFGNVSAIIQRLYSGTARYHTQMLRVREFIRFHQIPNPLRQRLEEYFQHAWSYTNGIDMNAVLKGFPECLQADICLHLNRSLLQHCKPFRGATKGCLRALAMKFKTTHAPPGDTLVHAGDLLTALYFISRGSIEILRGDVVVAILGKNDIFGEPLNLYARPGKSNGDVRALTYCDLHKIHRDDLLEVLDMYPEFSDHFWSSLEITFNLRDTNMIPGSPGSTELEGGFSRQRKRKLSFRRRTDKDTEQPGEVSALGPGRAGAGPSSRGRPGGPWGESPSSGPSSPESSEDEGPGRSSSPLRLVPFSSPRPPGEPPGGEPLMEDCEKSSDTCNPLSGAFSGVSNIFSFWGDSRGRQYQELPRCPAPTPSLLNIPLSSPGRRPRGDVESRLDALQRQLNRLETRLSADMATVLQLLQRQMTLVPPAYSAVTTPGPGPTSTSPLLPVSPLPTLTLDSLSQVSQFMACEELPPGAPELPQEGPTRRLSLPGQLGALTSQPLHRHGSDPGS
row,Structure (SMILES),"hERG current change (%, negative = inhibition) at 1uM [%]"
1,CCN(CC)C(=O)COc1coc(CN2CCN(c3ccccc3)CC2)cc1=O,15.9
2,Cc1ccc(Cl)cc1NC(=O)Cn1cccc1,10.9
3,O=C(CSc1cn(CC(=O)N2CCOCC2)c2ccccc12)N1CCOCC1,15.7
4,CC(NC(=O)CSC1=NCCS1)c1ccccc1 (centres unmarked),16.8
5,O=C(Nc1cccc(-n2cnnn2)c1)c1cccc(Cl)c1,6.25
6,CC1CCN(C2CCN(S(=O)(=O)c3ccc(C(F)(F)F)cc3)CC2)CC1,-1.29
7,COC(=O)c1cnc(NNC(=O)c2ccc([N+](=O)[O-])cc2)nc1C(F)(F)F,2.22
8,CCc1ccc(S(=O)(=O)N2CCN(Cc3ccco3)CC2)cc1,3.03
9,CCn1nc(C)c(/C=N/NC(=O)c2c[nH]c3ccccc23)c1C,17.7
10,CC(C)(C)c1cc(=O)[nH]c(SCc2ccccc2Cl)n1,8.27
11,CCOc1ccc(N(CC(=O)NC2CC3CCC2C3)S(=O)(=O)c2ccc(C)cc2)cc1 (centres unmarked),7.07
12,CCOC(=O)C1=C(CS(=O)(=O)c2ccccc2)NC(=O)NC1c1ccc(OC)c(OC)c1 (centres unmarked),14.9
13,Brc1ccc(C2=Nn3cnnc3SC2)cc1,14.7
14,COc1ccc(-n2ccc(=O)c(C(=O)O)n2)cc1,15.8
15,NC(=O)c1ccc(C(F)(F)F)n(Cc2ccc(Cl)cc2)c1=O,4.85
16,COc1ccc(CNC(=O)C2CCN(S(C)(=O)=O)CC2)cc1,11.7
17,COc1ccc(/C=C/C(=O)Nc2cccnc2)cc1OC,14.6
18,COc1ccc(NS(=O)(=O)c2cccc(NC(=O)CCC(=O)c3ccc(Cl)cc3)c2)cc1,0.411
19,CC1(C)OC(=O)N2CCc3ccccc3C21C (centres unmarked),-1.79
20,COc1ccc(CCC(=O)Nc2nc3ccccc3[nH]2)cc1,5.78
21,Cc1ccc(NC(=O)C2CC2c2ccccc2)cc1 (centres unmarked),9.72
22,CC(C)=CCN1CCN(Cc2nc(C(C)C)cs2)CC1CCO (centres unmarked),4.55
23,CCc1nnc(NC(=O)c2ccc(S(=O)(=O)N(CC)Cc3ccccc3)cc2)o1,7.4
24,O=C1N/C(=N/O)S/C1=C\c1ccccc1-n1cccn1,6.98
25,CCCCN1C(=O)CCC(C(=O)O)C1c1ccc(OC)cc1 (centres unmarked),10.3
26,COc1ccccc1CNC(=O)C1CCC(CNS(=O)(=O)c2ccc(NC(C)=O)cc2)CC1 (centres unmarked),15

# Source: paper PMC4336329 (PLoS ONE, 2015)
